Laboratory results as given in patent US20140350081A1, “INSECT G-COUPLED RECEPTORS USEFUL AS TARGETS FOR INSECTICIDES AND COMPOUNDS AND REAGENTS IDENTIFIED USING THE SAME” (priority 2011, published 2014).
Where a name gives a salt, the structure may show the parent alone. Read-outs that look alike come from different tables or passages of the source.

What was measured:
[1] = molecular target: T1, human D1 dopamine receptor (hD1) (Homo sapiens, UniProt P21728); experiment: cAMP accumulation secondary assay, hD1-expressing cells; type: cell-based, H. sapiens
T1 construct: expressed in transfected cells

AaDOP2 [2] = molecular target: T2, AaDOP2 (Aedes aegypti, UniProt H6D5H2); experiment: HTRF cAMP accumulation concentration response assay (Cisbio Dynamic 2); type: cell-based
AaDOP2 [3] = molecular target: T2, AaDOP2; experiment: cell-based
Isdop2 [4] = molecular target: T3, Isdop2 (Ixodes scapularis, UniProt A0ACM8DGL0); experiment: cell-based; type: cell-based; conditions: for inhibition at 10 µM: read-out: % Inhibition (of response to dopamine), Isdop2 screen
Isdop1 = Isdop1 (Ixodes scapularis, UniProt A0ACM8FJJ0); experiment: cAMP accumulation confirmation assay, cells stably expressing Isdop1; type: cell-based
Isdop2 [5] = molecular target: T3, Isdop2; experiment: cAMP accumulation confirmation assay, cells stably expressing Isdop2; type: cell-based
[6] = IC50 ± S.E.M. (nM), HTRF cAMP assay

T2 sequence (H6D5H2 entry or part of it): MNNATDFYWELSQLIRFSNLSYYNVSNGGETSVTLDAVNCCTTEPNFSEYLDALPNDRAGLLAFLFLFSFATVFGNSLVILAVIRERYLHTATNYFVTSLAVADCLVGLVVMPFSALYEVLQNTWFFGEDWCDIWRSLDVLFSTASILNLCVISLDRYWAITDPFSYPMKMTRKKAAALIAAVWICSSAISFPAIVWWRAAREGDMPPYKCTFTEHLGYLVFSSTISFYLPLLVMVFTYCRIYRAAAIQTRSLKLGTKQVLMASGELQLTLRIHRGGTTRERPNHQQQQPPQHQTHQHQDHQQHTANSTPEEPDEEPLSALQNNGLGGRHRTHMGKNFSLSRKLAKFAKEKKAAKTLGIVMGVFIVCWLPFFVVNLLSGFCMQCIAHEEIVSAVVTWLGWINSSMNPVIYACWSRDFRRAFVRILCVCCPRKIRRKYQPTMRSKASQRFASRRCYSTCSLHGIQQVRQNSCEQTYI
T3 sequence (A0ACM8DGL0 entry or part of it): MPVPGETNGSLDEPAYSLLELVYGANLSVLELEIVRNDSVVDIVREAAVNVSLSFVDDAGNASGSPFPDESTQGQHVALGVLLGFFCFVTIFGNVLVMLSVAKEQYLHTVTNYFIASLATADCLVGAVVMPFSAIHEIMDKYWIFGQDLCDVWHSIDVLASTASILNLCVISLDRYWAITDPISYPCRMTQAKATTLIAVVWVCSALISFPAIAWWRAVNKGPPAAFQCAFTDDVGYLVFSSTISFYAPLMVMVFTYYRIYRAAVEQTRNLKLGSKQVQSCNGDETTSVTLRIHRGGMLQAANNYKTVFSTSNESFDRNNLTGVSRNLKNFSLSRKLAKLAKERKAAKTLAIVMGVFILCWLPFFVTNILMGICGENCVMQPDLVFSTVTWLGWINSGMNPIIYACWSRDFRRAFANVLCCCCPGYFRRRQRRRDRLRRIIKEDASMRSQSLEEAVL
T1 sequence (P21728 whole entry): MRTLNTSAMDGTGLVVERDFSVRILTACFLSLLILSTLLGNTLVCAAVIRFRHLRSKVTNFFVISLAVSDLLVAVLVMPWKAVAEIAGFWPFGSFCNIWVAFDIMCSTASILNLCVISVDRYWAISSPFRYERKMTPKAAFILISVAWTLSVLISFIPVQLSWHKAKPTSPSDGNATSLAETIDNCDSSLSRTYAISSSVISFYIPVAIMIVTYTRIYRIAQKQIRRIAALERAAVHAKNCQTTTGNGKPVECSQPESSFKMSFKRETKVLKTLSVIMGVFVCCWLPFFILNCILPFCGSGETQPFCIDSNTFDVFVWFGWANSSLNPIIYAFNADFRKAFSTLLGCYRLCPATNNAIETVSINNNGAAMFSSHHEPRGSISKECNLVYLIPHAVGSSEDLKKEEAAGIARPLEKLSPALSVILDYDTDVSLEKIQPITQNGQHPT

## CN(C)CCC=C1c2ccccc2COc2ccccc21 (mixture of isomers) [Doxepin, ((Z)-3-(dibenzo[b,e]oxepin-11(6H)-ylidene)-N,N-dimethylpropan-1-amine)]
[1]
  IC50: 960 ± 86 nM
AaDOP2 [2]; [6]
  IC50: 20 ± 6.2 nM
AaDOP2 [3]
  IC50: 31 ± 4.9 nM

## CN1CCN2c3ccccc3Cc3ccccc3C2C1 (racemic) [Mianserin, ((±)-2-methyl-1,2,3,4,10,14b-hexahydrodibenzo[c,f]pyrazino [1,2-a]azepine)]
AaDOP2 [2]; [6]
  IC50: 130 ± 24 nM
AaDOP2 [3]
  IC50: 120 ± 40 nM

## O=C1CCc2ccc(OCCCCN3CCN(c4cccc(Cl)c4Cl)CC3)cc2N1 [Aripiprazole]
AaDOP2 [2]; [6]
  IC50: 6500 nM

## CN1C2CCC1CC(OC(c1ccccc1)c1ccccc1)C2 (stereo not drawn) [Benztropine, (3-endo)-3-(diphenylmethoxy)-8-methyl-8-azabicyclo[3.2.1]octane]
AaDOP2 [2]; [6]
  IC50: 340 ± 41 nM

## CN1CCC[C@@H]1CCO[C@](C)(c1ccccc1)c1ccc(Cl)cc1 [Clemastine fumarate]
Isdop2 [4]
  inhibition at 10 µM: 90%

## CN(C)CCCN1c2ccccc2CCc2ccc(Cl)cc21 [Clomipramine]
AaDOP2 [2]; [6]
  IC50: 56 ± 18 nM

## CN1CCN(C2=Nc3cc(Cl)ccc3Nc3ccccc32)CC1 [Clozapine, (8-chloro-11-(4-methylpiperazin-1-yl)-5I-dibenzo[b,e][1,4]-diazepine)]
Isdop1
  IC50: 4700 nM
Isdop2 [5]
  IC50: 9300 nM

## CN1CCC(=C2c3ccccc3C=Cc3ccccc32)CC1 [Cyproheptadine]
AaDOP2 [2]
  IC50: 6.5 ± 1.9 nM

## Clc1ccc2c(c1)CCc1cccnc1C2=C1CCNCC1 [Desloratidine, 8-Chloro-6,11-dihydro-11-(4-piperidinylidene)-5H-benzo[5,6]cyclohepta[1,2,b]pyridine]
AaDOP2 [2]
  IC50: 1170 nM

## CN(C)CCOC(c1ccccc1)c1ccccc1 [Diphenhydramine]
AaDOP2 [2]; [6]
  IC50: 7500 nM

## CNCCC(Oc1ccc(C(F)(F)F)cc1)c1ccccc1 (stereo not drawn) [Fluoxetine]
AaDOP2 [2]
  IC50 ± S.E.M. (nM), HTRF cAMP assay: No Inhibition^a
AaDOP2 [2]; listed as fluoxetine
  IC50 ± S.E.M. (nM), HTRF cAMP assay: no inhibition

## OCCN1CCN(CCCN2c3ccccc3Sc3ccc(C(F)(F)F)cc32)CC1 [Fluphenazine, 2-[4-[3-[2-(trifluoromethyl)-10H-phenothiazin-10-yl]propyl]piperazin-1-yl]ethanol]
AaDOP2 [2]
  IC50: 15 nM

## O=C(CCCN1CCC(O)(c2ccc(Cl)cc2)CC1)c1ccc(F)cc1 [Haloperidol]
AaDOP2 [2]; [6]
  IC50: 4300 nM

## Clc1ccc(COC(Cn2ccnc2)c2ccc(Cl)cc2Cl)c(Cl)c1 (stereo not drawn) [Miconazole nitrate, 1-(2,4-Dichloro-β-[(2,4-dichlorobenzyl)oxy]phenethyl)imidazole]
AaDOP2 [2]; Avg IC50 (μM), in vitro Concentration Response Curve assay, n = 2, relative to control antagonist Amitriptyline
  IC50: 7350 nM

## Cc1cc2c(s1)Nc1ccccc1N=C2N1CCN(C)CC1 [Olanzapine]
AaDOP2 [2]
  IC50: 11 ± 2.2 nM

## Cc1ccccc1C(OCCN(C)C)c1ccccc1 (stereo not drawn) [Orphenadrine hydrochloride]
Isdop2 [4]
  inhibition at 10 µM: 81%

## CCN(CC)C(=O)NC1C=C2c3cccc4[nH]cc(c34)C[C@H]2N(C)C1.O=C(O)/C=C\C(=O)O (stereo partly drawn) [R(+)-Lisuride hydrogen maleate]
Isdop2 [4]
  % Inhibition (of response to dopamine), Isdop2 screen: 84%

## Cc1nc2n(c(=O)c1CCN1CCC(c3noc4cc(F)ccc34)CC1)CCCC2 [Risperidone, 4-[2-[4-(6-fluorobenzo[d]isoxazol-3-yl)-1-piperidyl]ethyl]-3-methyl-2,6-diazabicyclo[4.4.0]deca-1,3-dien-5-one]
AaDOP2 [2]
  IC50: 150 ± 41 nM

## O=c1n(CCCN2CCN(c3cccc(Cl)c3)CC2)nc2ccccn12 [Trazodone]
AaDOP2 [2]
  IC50 ± S.E.M. (nM), HTRF cAMP assay: No Inhibition^a
